# This is one part of the list.
# What was measured:
# Assay in all cases: glycan array binding signal (z-score within array); higher = stronger binding
# Conditions in all cases: glycan notation: IUPAC condensed, linker removed
# [1] = target: GlcNAc(b1-2)[GlcNAc(b1-4)]Man(a1-3)[GlcNAc(b1-4)][GlcNAc(b1-2)Man(a1-6)]Man(b1-4)GlcNAc(b1-4)GlcNAc
# Procedure, shortened: (§1)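 The binding signal is a Z-score computed within each array. Data were drawn from 3228 arrays in the Consortium for Functional Glycomics database, restricted to those with a known protein sequence. Scores were averaged over arrays of the same protein sequence at different concentrations or buffers, and over linkers, and negative values can be taken as non-binding.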
# [2] = target: GlcNAc(b1-2)[GlcNAc(b1-4)]Man(a1-3)[GlcNAc(b1-4)][GlcNAc(b1-2)[GlcNAc(b1-6)]Man(a1-6)]Man(b1-4)GlcNAc(b1-4)GlcNAc
# Procedure, shortened: as §1
# [3] = target: GlcNAc(b1-2)[GlcNAc(b1-4)]Man(a1-3)[GlcNAc(b1-4)][GlcNAc(b1-2)[GlcNAc(b1-6)]Man(a1-6)]Man(b1-4)GlcNAc(b1-4)[Fuc(a1-6)]GlcNAc
# Procedure, shortened: as §1
# [4] = target: GlcNAc(b1-2)[GlcNAc(b1-6)]Man(a1-6)[GlcNAc(b1-2)Man(a1-3)]Man(b1-4)GlcNAc(b1-4)GlcNAc
# Procedure, shortened: as §1
# [5] = target: GlcNAc(b1-2)[GlcNAc(b1-6)]Man(a1-6)[GlcNAc(b1-2)Man(a1-3)]Man(b1-4)GlcNAc(b1-4)[Fuc(a1-6)]GlcNAc
# Procedure, shortened: as §1
# [6] = target: GlcNAc(b1-2)[GlcNAc(b1-6)]Man(a1-6)[GlcNAc(b1-4)][GlcNAc(b1-2)Man(a1-3)]Man(b1-4)GlcNAc(b1-4)GlcNAc
# Procedure, shortened: as §1
# GlcNAc(b1-3)Fuc = target: GlcNAc(b1-3)Fuc
# Procedure, shortened: as §1
# GlcNAc(b1-3)Gal = target: GlcNAc(b1-3)Gal
# Procedure, shortened: as §1
# [7] = target: GlcNAc(b1-3)Gal(b1-3)GalNAc
# Procedure, shortened: as §1
# GlcNAc(b1-3)Gal(b1-4)Glc = target: GlcNAc(b1-3)Gal(b1-4)Glc
# Procedure, shortened: as §1
# [8] = target: GlcNAc(b1-3)Gal(b1-4)GlcNAc
# Procedure, shortened: as §1
# [9] = target: GlcNAc(b1-3)Gal(b1-4)GlcNAc(b1-2)Man(a1-3)[GlcNAc(b1-3)Gal(b1-4)GlcNAc(b1-2)Man(a1-6)]Man(b1-4)GlcNAc(b1-4)GlcNAc
# Procedure, shortened: as §1
# [10] = target: GlcNAc(b1-3)Gal(b1-4)GlcNAc(b1-2)Man(a1-3)[GlcNAc(b1-3)Gal(b1-4)GlcNAc(b1-2)Man(a1-6)]Man(b1-4)GlcNAc(b1-4)[Fuc(a1-6)]GlcNAc
# Procedure, shortened: as §1
# [11] = target: GlcNAc(b1-3)Gal(b1-4)GlcNAc(b1-2)[GlcNAc(b1-3)Gal(b1-4)GlcNAc(b1-6)]Man(a1-6)[GlcNAc(b1-3)Gal(b1-4)GlcNAc(b1-2)Man(a1-3)]Man(b1-4)GlcNAc(b1-4)GlcNAc
# Procedure, shortened: as §1
# [12] = target: GlcNAc(b1-3)Gal(b1-4)GlcNAc(b1-3)Gal(b1-4)GlcNAc
# Procedure, shortened: as §1
# [13] = target: GlcNAc(b1-3)Gal(b1-4)GlcNAc(b1-3)Gal(b1-4)GlcNAc(b1-2)Man(a1-3)[GlcNAc(b1-3)Gal(b1-4)GlcNAc(b1-3)Gal(b1-4)GlcNAc(b1-2)Man(a1-6)]Man(b1-4)GlcNAc(b1-4)GlcNAc
# Procedure, shortened: as §1
# [14] = target: GlcNAc(b1-3)Gal(b1-4)GlcNAc(b1-3)Gal(b1-4)GlcNAc(b1-2)Man(a1-3)[GlcNAc(b1-3)Gal(b1-4)GlcNAc(b1-3)Gal(b1-4)GlcNAc(b1-2)Man(a1-6)]Man(b1-4)GlcNAc(b1-4)[Fuc(a1-6)]GlcNAc
# Procedure, shortened: as §1
# [15] = target: GlcNAc(b1-3)Gal(b1-4)GlcNAc(b1-3)Gal(b1-4)GlcNAc(b1-2)[GlcNAc(b1-3)Gal(b1-4)GlcNAc(b1-3)Gal(b1-4)GlcNAc(b1-6)]Man(a1-6)[GlcNAc(b1-3)Gal(b1-4)GlcNAc(b1-3)Gal(b1-4)GlcNAc(b1-2)Man(a1-3)]Man(b1-4)GlcNAc(b1-4)[Fuc(a1-6)]GlcNAc
# Procedure, shortened: as §1
# [16] = target: GlcNAc(b1-3)Gal(b1-4)GlcNAc(b1-3)Gal(b1-4)GlcNAc(b1-3)Gal(b1-4)GlcNAc(b1-2)Man(a1-3)[GlcNAc(b1-3)Gal(b1-4)GlcNAc(b1-3)Gal(b1-4)GlcNAc(b1-3)Gal(b1-4)GlcNAc(b1-2)Man(a1-6)]Man(b1-4)GlcNAc(b1-4)GlcNAc
# Procedure, shortened: as §1
# [17] = target: GlcNAc(b1-3)Gal(b1-4)GlcNAc(b1-3)Gal(b1-4)GlcNAc(b1-3)Gal(b1-4)GlcNAc(b1-2)Man(a1-3)[GlcNAc(b1-3)Gal(b1-4)GlcNAc(b1-3)Gal(b1-4)GlcNAc(b1-3)Gal(b1-4)GlcNAc(b1-2)Man(a1-6)]Man(b1-4)GlcNAc(b1-4)[Fuc(a1-6)]GlcNAc
# Procedure, shortened: as §1
# [18] = target: GlcNAc(b1-3)Gal(b1-4)GlcNAc(b1-3)Gal(b1-4)GlcNAc(b1-3)Gal(b1-4)GlcNAc(b1-2)[GlcNAc(b1-3)Gal(b1-4)GlcNAc(b1-3)Gal(b1-4)GlcNAc(b1-3)Gal(b1-4)GlcNAc(b1-6)]Man(a1-6)[GlcNAc(b1-3)Gal(b1-4)GlcNAc(b1-3)Gal(b1-4)GlcNAc(b1-3)Gal(b1-4)GlcNAc(b1-2)Man(a1-3)]Man(b1-4)GlcNAc(b1-4)[Fuc(a1-6)]GlcNAc
# Procedure, shortened: as §1
# [19] = target: GlcNAc(b1-3)Gal(b1-4)GlcNAc(b1-3)Gal(b1-4)GlcNAc(b1-3)Gal(b1-4)GlcNAc(b1-3)Gal(b1-4)GlcNAc(b1-2)Man(a1-3)[GlcNAc(b1-3)Gal(b1-4)GlcNAc(b1-3)Gal(b1-4)GlcNAc(b1-3)Gal(b1-4)GlcNAc(b1-3)Gal(b1-4)GlcNAc(b1-2)Man(a1-6)]Man(b1-4)GlcNAc(b1-4)GlcNAc
# Procedure, shortened: as §1
# [20] = target: GlcNAc(b1-3)Gal(b1-4)GlcNAc(b1-3)Gal(b1-4)GlcNAc(b1-3)Gal(b1-4)GlcNAc(b1-3)Gal(b1-4)GlcNAc(b1-2)Man(a1-3)[GlcNAc(b1-3)Gal(b1-4)GlcNAc(b1-3)Gal(b1-4)GlcNAc(b1-3)Gal(b1-4)GlcNAc(b1-3)Gal(b1-4)GlcNAc(b1-2)Man(a1-6)]Man(b1-4)GlcNAc(b1-4)[Fuc(a1-6)]GlcNAc
# Procedure, shortened: as §1
binder,measurement,setting,value
"InvD YPIII (Yersinia pseudotuberculosis), B1JSC0 (protein) MIKYFSFFKKPEPIVGILPNRQSHHILPTHIRRVAWGTLLLQLFIPLSVSFSPAIAAMKASKADTMVSYSSTEPYVLGSGETVAMVAKKYGITVDELKKINIYRTFSRPFTALTTGDEIDIPRKASPFSVDNNKDNRLSVENTLAGHAVAGATALSNGDVAKSGERMVRSAASNEFNNSAQQWLSQFGTARVQLNINDDFHLDGSAADVLIPLYDNEKSILFTQLGARNKDSRNTVNMGAGVRTFQGNWMYGANTFFDNDLTGKNRRIGVGAEAWTDYLKLSANNYFGITDWHQSRDFIDYNERPANGYDLRAEAYLPSYPQLGGKAMYEKYRGDDVALFGKDNRQKNPHAITAGVNYTPIPLVTIGAEHRAGKGGQNDSNINFQLNYRLGETWQSHIDPSAVAASRTLAGSRYDLVERNNHIVLDYQKQNLVRLSLPDSLAGDPFSQLSVTAQVTATHGLERIDWQSAELMAAGGVLKQTSKNGLEITLPEYQMNRTGGNSYILNAIAYDTQGNASSQASMLITVNAQKINIANSTLVAVPINIEANNSDTSVVTLTLKDDNNIPVTGQDVTFLSPLGTLSAMTDSGNGVYTATLTAGTVSGTTAVSSNINGSALDMTPATVTLNGNSGELSITHSMLVAAPVNIEANGSDTSVVTLTLRDSNNNPVTGQTVTFAGTLGTLGAVTEGSSGVYTATLTAGIMVGTSSITASVNSTALGVTPATVTLNGDSGNLSTTNSTLVAAPVNIEANSSDTSVVTLTLRDNNNNPVTGQTVVFTSTLGTLGNVTEQASGVYTATLTAGTVSGVASLSVSVGGNALGVTPATVTLNGDSGNLSTTNSTLVAAPVNIEANSSDTSVVTLTLRDNNNNPVTGQTVNFAGTLGTLGTVSEGSSGVYTTTLTAGTVAGVASLSVNVGGNALGVTPATVTLNGNSGNLSATNSTLVAAPVNIEANSSDTSVVTLTLRDNNNNPVTGQTVAFTSTLGTLGNVTEQASGVYTATLTAGTVSGVASLSVSVNSNALGVTPATVTLNGDSGNLSTTNSTLVAAPVNIEANSSDTSVVTLTLRDNNNNPVTGQTVAFTSTLGTLGNVTEQASGLYTATLTAGTVSGVASLSVNVGGNALGVTPATVTLNGDSGNLSATNSTLVAAPVNIEANSSDTSVVTLTLRDNNNNPVTGQTVAFTSTLGTLGNVTEQASGLYTATLTAGTVSGVASLSVNVGGTALGVTPATVTLNGDSGNLSTTNSTLVAAPVNIEANSSDTSVVTLTLRDNNNNPVTGQTVAFTSTLGTLGNVTEQASGLYTATLTAGTVSGVASLSVSVNSTALGVTPATVTLNGDSGNLSTTNSTLVAAPVNIEANSSDTSVVTLTLRDNNNNPVTGQTVAFTSTLGTLGNVTEQASGVYTATLTAGTVAGVASLSVNVGGNALGVTPATVTLNGDSGNLSTTNSTLVAAPVNIEANSSDTSVVTLTLRDNNNNPVTGQTVAFTSTLGTLGNVTEQASGVYTATLTAGTVSGVASLSVSVGSSALGVTPATVTLNGDSGNLSTTNSTLVAAPVNIEANNSDTSVVTLTLRDNNNNPVTGQTVAFTSTLGTLGNVTEQASGVYTATLTAGTVSGVASLSVSVNSNALGVTPATVTLNGDSGNLSTTNSTLVAAPVNIEANSSDTSVVTLTLRDNNNNPVTGQTVVFTSTLGTLGNVTEQASGLYTATLTAGTVSGVASLSVSVGGNALGVTGNITLAPGALDAARSILAVNKPSINADDRIGSTITFTAQDAQGNAITGLDIAFMTDLENSQIMTLVDHNDGTYTANINGTQTGIANIAVQSSGATIAGLAATMVTITPGAWNTTQATPVMTVALPITTCQSSSGVYKRYYIGIVTHELYDNYGNEISGILTYNLGAGRYTTVTSQNSSVSGSNGLTRRSNSPVSHFILTSDAYTSQAACYAERIANVNVTITVTAITDDFKTSAVNKVFILGTGSN",glycan array binding signal (z-score),[1],-0.29
same,glycan array binding signal (z-score),[2],-0.404
same,glycan array binding signal (z-score),[3],-0.208
same,glycan array binding signal (z-score),[4],-0.237
same,glycan array binding signal (z-score),[5],-0.307
same,glycan array binding signal (z-score),[6],-0.227
same,glycan array binding signal (z-score),GlcNAc(b1-3)Fuc,-0.207
same,glycan array binding signal (z-score),GlcNAc(b1-3)Gal,-0.272
same,glycan array binding signal (z-score),[7],0.135
same,glycan array binding signal (z-score),GlcNAc(b1-3)Gal(b1-4)Glc,-0.325
same,glycan array binding signal (z-score),[8],-0.139
same,glycan array binding signal (z-score),[9],-0.006
same,glycan array binding signal (z-score),[10],-0.04
same,glycan array binding signal (z-score),[11],-0.181
same,glycan array binding signal (z-score),[12],-0.37
same,glycan array binding signal (z-score),[13],5.11
same,glycan array binding signal (z-score),[14],2.68
same,glycan array binding signal (z-score),[15],4.27
same,glycan array binding signal (z-score),[16],0.285
same,glycan array binding signal (z-score),[17],0.855
same,glycan array binding signal (z-score),[18],0.761
same,glycan array binding signal (z-score),[19],0.12
same,glycan array binding signal (z-score),[20],-0.117
